# These are yes or no findings as the source states them, for the method shown. In cells and extracts the contact can be indirect. Some entries that bind do so weakly or less than the wild type. For some of these results: Tags and fused reporters may be left off the sequences shown.
# Legend:
# [1] = biological target: T1, NADPH oxidase 4 (NOX4), endogenous in cultured macrophages (not stated (endogenous in a macrophage cell line; mouse alveolar macrophage and human THP-1 lines were cultured)) (UniProt Q9NPH5); experiment: co-IP; NOX4 immunoprecipitation from macrophage cell lysates, immunoblot for TIM23; cells with or without asbestos exposure
# T1 sequence: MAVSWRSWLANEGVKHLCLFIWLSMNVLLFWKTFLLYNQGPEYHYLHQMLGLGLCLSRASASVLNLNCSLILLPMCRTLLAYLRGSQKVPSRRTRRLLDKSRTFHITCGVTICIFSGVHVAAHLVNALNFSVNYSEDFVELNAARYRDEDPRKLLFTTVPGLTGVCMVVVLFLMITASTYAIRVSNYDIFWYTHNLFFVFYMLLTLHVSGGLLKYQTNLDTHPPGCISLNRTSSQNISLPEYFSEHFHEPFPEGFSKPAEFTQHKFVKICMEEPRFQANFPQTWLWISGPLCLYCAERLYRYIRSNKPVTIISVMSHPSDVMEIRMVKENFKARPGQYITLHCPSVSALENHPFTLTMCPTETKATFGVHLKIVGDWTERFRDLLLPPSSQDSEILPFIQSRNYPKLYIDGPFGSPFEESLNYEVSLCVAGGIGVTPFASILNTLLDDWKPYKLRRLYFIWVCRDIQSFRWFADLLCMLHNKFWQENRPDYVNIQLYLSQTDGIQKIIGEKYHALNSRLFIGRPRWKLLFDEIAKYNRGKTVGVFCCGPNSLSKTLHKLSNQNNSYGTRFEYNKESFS
# [2] = biological target: T1, NADPH oxidase 4 (NOX4), endogenous in cultured macrophages (not stated (endogenous in a macrophage cell line; mouse alveolar macrophage and human THP-1 lines were cultured)); experiment: co-IP; NOX4 immunoprecipitation from isolated mitochondria of macrophages (digitonin, then sonication), immunoblot for TIM23; with or without asbestos exposure
# [3] = biological target: T2, NOX4, endogenous in human BAL lung macrophages (human (endogenous in BAL macrophages)) (UniProt Q9NPH5); experiment: co-IP; NOX4 immunoprecipitation from BAL lung macrophages of normal and asbestosis subjects, immunoblot for TIM23
# T2 sequence: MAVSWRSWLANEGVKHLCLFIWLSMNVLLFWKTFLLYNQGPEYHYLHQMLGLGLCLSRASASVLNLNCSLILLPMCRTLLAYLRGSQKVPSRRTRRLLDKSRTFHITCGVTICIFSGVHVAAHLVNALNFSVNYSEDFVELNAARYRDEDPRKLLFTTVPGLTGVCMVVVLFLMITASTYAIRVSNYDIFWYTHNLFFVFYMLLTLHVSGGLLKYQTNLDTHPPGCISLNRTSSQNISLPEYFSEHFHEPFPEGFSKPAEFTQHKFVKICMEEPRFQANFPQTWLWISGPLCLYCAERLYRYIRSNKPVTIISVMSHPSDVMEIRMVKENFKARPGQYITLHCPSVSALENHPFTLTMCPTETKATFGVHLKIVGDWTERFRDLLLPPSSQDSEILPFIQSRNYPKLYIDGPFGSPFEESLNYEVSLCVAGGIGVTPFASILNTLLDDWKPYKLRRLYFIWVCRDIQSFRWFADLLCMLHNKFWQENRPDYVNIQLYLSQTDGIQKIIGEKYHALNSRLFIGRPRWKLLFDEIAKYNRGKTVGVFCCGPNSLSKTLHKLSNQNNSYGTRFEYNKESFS
# [4] = biological target: T3, NOX4, endogenous in lung macrophages of Nox4 fl/fl mice (mouse (endogenous in lung macrophages of mice)) (UniProt Q9JHI8); experiment: co-IP; NOX4 immunoprecipitation from lung macrophages of Nox4 fl/fl mice exposed to MMVF or asbestos for 21 days, immunoblot for TIM23
# T3 sequence: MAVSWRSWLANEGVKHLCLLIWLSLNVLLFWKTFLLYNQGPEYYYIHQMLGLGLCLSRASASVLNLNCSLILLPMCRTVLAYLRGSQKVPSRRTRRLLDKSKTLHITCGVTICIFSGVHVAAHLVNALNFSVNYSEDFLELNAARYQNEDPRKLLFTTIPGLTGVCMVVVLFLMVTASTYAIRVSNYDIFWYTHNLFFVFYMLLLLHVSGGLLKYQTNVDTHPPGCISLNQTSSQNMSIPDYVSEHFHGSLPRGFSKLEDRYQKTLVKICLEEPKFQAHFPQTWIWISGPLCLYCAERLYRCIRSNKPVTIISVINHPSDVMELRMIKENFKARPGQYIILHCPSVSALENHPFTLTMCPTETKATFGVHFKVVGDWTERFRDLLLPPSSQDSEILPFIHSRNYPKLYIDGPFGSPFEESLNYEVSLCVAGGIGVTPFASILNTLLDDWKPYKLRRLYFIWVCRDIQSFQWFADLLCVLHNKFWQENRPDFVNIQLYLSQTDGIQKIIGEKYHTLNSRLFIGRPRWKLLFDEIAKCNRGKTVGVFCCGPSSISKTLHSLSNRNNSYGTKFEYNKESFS
# [5] = biological target: T3, NOX4, endogenous in lung macrophages of Nox4 fl/fl mice (mouse (endogenous in lung macrophages of mice)); experiment: co-IP; NOX4 immunoprecipitation from isolated mitochondria of lung macrophages of Nox4 fl/fl mice exposed to MMVF or asbestos (digitonin, then sonication), immunoblot for TIM23
# [6] = biological target: T4, GST-NOX4 124aa mutant (human) (UniProt Q9NPH5); experiment: co-IP; immunoprecipitation of transfected C-terminally GST-tagged human NOX4 full-length and truncated constructs, immunoblot for TIM23; cell type not stated
# T4 sequence: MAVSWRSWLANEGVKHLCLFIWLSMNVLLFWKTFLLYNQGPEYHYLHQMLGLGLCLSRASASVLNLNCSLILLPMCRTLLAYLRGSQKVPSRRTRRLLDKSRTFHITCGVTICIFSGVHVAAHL
# [7] = biological target: T5, GST-NOX4 143aa mutant (human) (UniProt Q9NPH5); experiment: as above
# T5 sequence: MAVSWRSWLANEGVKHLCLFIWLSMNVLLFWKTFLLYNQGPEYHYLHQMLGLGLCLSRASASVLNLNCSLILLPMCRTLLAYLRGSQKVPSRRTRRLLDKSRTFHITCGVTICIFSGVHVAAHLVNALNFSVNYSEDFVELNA
# [8] = biological target: T6, GST-NOX4 213aa mutant (human) (UniProt Q9NPH5); experiment: as above
# T6 sequence: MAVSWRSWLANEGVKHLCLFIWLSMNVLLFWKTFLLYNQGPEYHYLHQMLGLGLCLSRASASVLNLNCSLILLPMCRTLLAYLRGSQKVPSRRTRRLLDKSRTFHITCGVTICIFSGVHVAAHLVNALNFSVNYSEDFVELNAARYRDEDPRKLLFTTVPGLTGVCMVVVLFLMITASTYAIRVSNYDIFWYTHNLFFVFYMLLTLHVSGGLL
# [9] = biological target: T7, GST-NOX4 447aa mutant (human) (UniProt Q9NPH5); experiment: as above
# T7 sequence: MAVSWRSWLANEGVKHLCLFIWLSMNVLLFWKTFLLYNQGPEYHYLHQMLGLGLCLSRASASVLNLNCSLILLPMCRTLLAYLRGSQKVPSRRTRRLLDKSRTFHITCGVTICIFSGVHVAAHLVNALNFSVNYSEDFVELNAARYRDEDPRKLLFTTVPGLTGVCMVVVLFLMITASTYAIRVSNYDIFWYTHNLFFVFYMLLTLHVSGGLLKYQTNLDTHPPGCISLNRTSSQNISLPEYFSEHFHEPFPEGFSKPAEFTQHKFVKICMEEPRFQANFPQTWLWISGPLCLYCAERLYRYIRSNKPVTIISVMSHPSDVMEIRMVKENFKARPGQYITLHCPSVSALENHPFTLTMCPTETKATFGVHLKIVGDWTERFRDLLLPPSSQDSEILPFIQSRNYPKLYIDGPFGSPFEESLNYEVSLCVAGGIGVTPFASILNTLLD
# [10] = biological target: T8, full-length GST-NOX4 (human) (UniProt Q9NPH5); experiment: as above
# T8 sequence: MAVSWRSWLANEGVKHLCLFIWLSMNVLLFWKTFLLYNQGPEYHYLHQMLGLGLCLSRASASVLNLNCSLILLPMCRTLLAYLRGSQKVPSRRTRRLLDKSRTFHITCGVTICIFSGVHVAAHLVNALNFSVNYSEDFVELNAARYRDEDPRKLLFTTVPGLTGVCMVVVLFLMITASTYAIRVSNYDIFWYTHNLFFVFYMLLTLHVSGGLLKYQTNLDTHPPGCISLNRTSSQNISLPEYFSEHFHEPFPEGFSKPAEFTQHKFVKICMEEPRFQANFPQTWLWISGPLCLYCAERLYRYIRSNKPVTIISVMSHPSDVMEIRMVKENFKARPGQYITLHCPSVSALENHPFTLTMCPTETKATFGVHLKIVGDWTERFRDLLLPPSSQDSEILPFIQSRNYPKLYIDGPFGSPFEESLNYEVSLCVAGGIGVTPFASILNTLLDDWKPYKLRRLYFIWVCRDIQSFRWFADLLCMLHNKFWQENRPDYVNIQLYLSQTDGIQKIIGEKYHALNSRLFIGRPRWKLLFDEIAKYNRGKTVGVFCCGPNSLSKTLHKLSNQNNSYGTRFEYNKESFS
binder,measurement,setting,value
"TIM23, endogenous in cultured macrophages (protein, UniProt O14925 1-209) MEGGGGSGNKTTGGLAGFFGAGGAGYSHADLAGVPLTGMNPLSPYLNVDPRYLVQDTDEFILPTGANKTRGRFELAFFTIGGCCMTGAAFGAMNGLRLGLKETQNMAWSKPRNVQILNMVTRQGALWANTLGSLALLYSAFGVIIEKTRGAEDDLNTVAAGTMTGMLYKCTGGLRGIARGGLTGLTLTSLYALYNNWEHMKGSLLQQSL",binding,[1],binds
same,binding,[2],binds
"TIM23, endogenous in human BAL lung macrophages (protein, UniProt O14925 1-209) MEGGGGSGNKTTGGLAGFFGAGGAGYSHADLAGVPLTGMNPLSPYLNVDPRYLVQDTDEFILPTGANKTRGRFELAFFTIGGCCMTGAAFGAMNGLRLGLKETQNMAWSKPRNVQILNMVTRQGALWANTLGSLALLYSAFGVIIEKTRGAEDDLNTVAAGTMTGMLYKCTGGLRGIARGGLTGLTLTSLYALYNNWEHMKGSLLQQSL",binding,[3],binds
"TIM23, endogenous in lung macrophages of Nox4 fl/fl mice (protein, UniProt Q9WTQ8 1-209) MEGGGRSSNKSTSGLAGFFGAGGAGYSNADLAGVPLTGMNPLSPYLNVDPRYLVQDTDEFILPTGANKTRGRFELAFFTIGGCCMTGAAFGAMNGLRLGLKETQSMAWSKPRNVQILNMVTRQGALWANTLGSLALLYSAFGVIIEKTRGAEDDLNTVAAGTMTGMLYKCTGGLRGIARGGLAGLTLTSLYALYNNWVHMKGSLLQQSL",binding,[4],binds
same,binding,[5],binds
"TIM23 in cells transfected with GST-NOX4 constructs (protein, UniProt O14925 1-209) MEGGGGSGNKTTGGLAGFFGAGGAGYSHADLAGVPLTGMNPLSPYLNVDPRYLVQDTDEFILPTGANKTRGRFELAFFTIGGCCMTGAAFGAMNGLRLGLKETQNMAWSKPRNVQILNMVTRQGALWANTLGSLALLYSAFGVIIEKTRGAEDDLNTVAAGTMTGMLYKCTGGLRGIARGGLTGLTLTSLYALYNNWEHMKGSLLQQSL",binding,[6],no binding
same,binding,[7],no binding
same,binding,[8],no binding
same,binding,[9],binds
same,binding,[10],binds

# Source: publication PMC10193017
